# Measurements reported in PubChem BioAssay AID662 (National Center for Advancing Translational Sciences (NCATS), 2007).
# About 1,800 (2.5%) of roughly 71,000 compounds were called active. Inconclusive means that the source gave no clear call. Such entries were picked first, then a sample of the others. Calls come from the whole dose curve; as a rule, active = well fitted activation curve with a large enough effect in the signal ratio, with a control signal flat (not every such curve was filed as active); inconclusive = small, poorly fitted or top-dose-only effect, or effect the other way, or a change in a side signal; inactive = flat fitted curve, though single readings scatter; the % refers to the signal ratio. Potencies beside an inconclusive call are fits to weak or partial responses and may not hold up.
# Assay: Cell signaling CRE-BLA (Fsk stim); for activity change, negative = inhibition: % of control where 0% means no effect
# Conditions: CHO CRE-bla reporter (cAMP response element driving beta-lactamase), forskolin EC10, beta-lactamase ratio; activity change, negative = inhibition: at 38.2 µM (top of the series) unless noted
# How it was run: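 AC50 values, positive or negative, reflect shifts in EC10 NKH 477-induced CRE-bla reporter activity in CHO cells. Incubation lasted 3 h at 37 °C before CCF4 substrate (2 h, room temperature) and ratiometric 460/530 nm reading.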
# Potency is the fitted concentration of half-maximal effect; tags give direction and shape of the fitted curve.
SMILES,Potency,"activity change, negative = inhibition"
COc1cc(C(=O)NCc2nnc(SCC(=O)Nc3cccc(C)c3)o2)cc(OC)c1OC,"inconclusive: 20 µM [rising, single point]",
Cc1nn(Cc2ccccc2Cl)c2sc(C(=O)NCCCn3ccnc3)cc12,,inactive
CCNCCCNCCCNCCCNCC,,inconclusive: -11.7%
Cc1cc(=O)oc2c(C)c(OCC(=O)N(C)C)ccc12,,inactive
COCCn1c(=O)c(-c2ccccc2)nc2cnc(N3CCN(C)CC3)nc21,"inconclusive: 10 µM [rising, partial curve]",
CCOc1ccc(-c2nn3c(-c4ccccc4)nnc3s2)cc1,,inactive
Clc1ccc(C(c2ccccc2Cl)C(Cl)Cl)cc1 (stereo unspecified),,inconclusive: -1.44%
COC(=O)c1cc(OC)c(OC)cc1NC(=O)CSc1nnc(-c2cccnc2)n1C,,inconclusive: 29.7%
Cc1ccccc1CS(=O)(=O)CCC(=O)NCCCN1CCOCC1,,inactive
C/C(Cl)=C/CSc1nc2c(c(=O)[nH]c(=O)n2C)n1C(C)C,"inconclusive: 5.01 µM [rising, partial curve]",
COc1ccc(-c2nc3cnccn3c2Nc2ccc3c(c2)OCO3)cc1,"inconclusive: 6.31 µM [rising, partial curve]",
CCCCCC1CCC(C(=O)O)CC1 (stereo unspecified),,inconclusive: 21.2%
O=c1[nH]c(CSc2nnc(COc3ccccc3)n2-c2ccccc2)nc2ccccc12,,inconclusive: 48.9%
CCOC(=O)c1cc2occc2n1CCCN1C(=O)c2ccccc2C1=O,"inconclusive: 12.6 µM [rising, single point]",
CCCCn1c(SCc2cc(=O)[nH]c3ccccc23)nc2c1c(=O)n(C)c(=O)n2C,,inconclusive: 26.9%
Cc1ccc(NC(=O)c2ccc(F)c(S(=O)(=O)N3CCOCC3)c2)cc1F,,inconclusive: 0.753%
Cc1cc(C)n(-c2cc(C)c(C)cc2Br)n1,,inconclusive: 3.18%
Cc1ccc2oc(=O)c3cc(C(=O)NCCN4CCN(C)CC4)sc3c2c1,"inconclusive: 2 µM [rising, full curve, poor fit]",
N#Cc1cccc(-c2nccc(-n3ccnc3)n2)c1,active: 2.51 µM,
N#Cc1c2c(c(=S)n(-c3ccccc3)c1N)CCCC2,,inconclusive: 20.1% [at 7.6 µM]
CC(C)c1ccc2oc(=O)cc(CN3CCN(c4ccccc4)CC3)c2c1,,inconclusive: 5.8%
c1ccc2sc(SCN(C3CCCCC3)C3CCCCC3)nc2c1,,inactive: -1.73% [at 7.6 µM]

SMILES,Potency,"activity change, negative = inhibition"
O=C(Cn1ccc2ccccc2c1=O)NCCC(=O)Nc1cccnc1,,inconclusive: -8.63%
COc1ccc(N2Cc3cccc(C(=O)NC(C)CCc4ccco4)c3C2=O)cc1 (stereo unspecified),,inactive
c1ccc2c(c1)ncn2Cc1nnc2sc(-c3ccncc3)nn12,,inconclusive: 18.7%
CCCCCn1c(=N)n(CC(O)COc2ccccc2OC)c2ccccc21 (stereo unspecified),,inactive
O=C(O)Cc1cc2ccccc2nc1C(=O)O,,inactive
CCCCn1c(SCc2cc(=O)n3ccsc3n2)nc2cc(C(=O)OC)ccc2c1=O,,inconclusive: -3.52%
N#Cc1nc(COc2ccc(Br)cc2)oc1NCCCn1ccnc1,"inconclusive: 12.6 µM [rising, partial curve]",
CCc1cc(=O)oc2cc(OCC(=O)N(CC)CC)c(Cl)cc12,,inconclusive: 29.7%
CCOC(=O)Oc1ccc2oc(C)c(C(=O)OCCOC)c2c1,"inconclusive: 10 µM [rising, partial curve]",
Clc1ccccc1-c1nc(NCc2cccs2)c2ccccc2n1,,inactive
N#Cc1ccc(NC(=O)C2CC(c3ccc(F)cc3)=NO2)cc1 (stereo unspecified),"inconclusive: 7.94 µM [rising, partial curve, poor fit]",
CCCCN1CCCC[C@H]1C(=O)Nc1c(C)cccc1C,,inactive
CSc1ccc(Cl)c(C(=O)OCC(=O)NCc2ccco2)c1,,inconclusive: -25.4%
O=C(NCc1ccco1)c1cc2c(s1)CSC2,,inactive
COc1ncc2nc(-c3cn(C)c4ccccc34)c(=O)n(C)c2n1,"inconclusive: 5.01 µM [rising, partial curve]",
COc1cccc(N2C(=O)c3ccncc3C2=O)c1,,inconclusive: -20.7%
O=[N+]([O-])c1cccc(C(F)(F)F)c1,,inactive
COc1cccc2c(=O)n(CC(=O)NC3CCCCC3)ccc12,,inconclusive: 9.55%
CC(O)CC(C)O (stereo unspecified),,inactive
CCCCCN(C(=O)NC(=O)Nc1nncs1)S(C)(=O)=O,"inconclusive: 5.01 µM [falling, single point]",
O=C(NC1CC2CCCC(C1)N2C(=O)NCc1ccccc1)C1CC1 (stereo unspecified),,inactive
Cn1c(CCN2CCOCC2)nc2cc(NC(=O)COc3ccccc3)ccc21,,inconclusive: 14%

SMILES,Potency,"activity change, negative = inhibition"
O=C(NCC1CCCO1)C1CCCN(S(=O)(=O)c2cccc3nsnc23)C1 (stereo unspecified),,inconclusive: -3.75% [cytotoxic]
C=CCOc1ccc(CN(C)CC(=O)N(CC(C)C)c2c(N)n(CC(C)C)c(=O)[nH]c2=O)cc1,,inconclusive: -2.4%
CCCC(=O)Nc1cc(-c2nn(C)c(=O)c3ccccc23)ccc1OC,active: 12.6 µM,
c1coc(CN2CN=C(Nc3nc4ccccc4s3)NC2)c1,,inactive
C#CCNc1nc(C)nc2c1nnn2Cc1ccccc1F,"inconclusive: 10 µM [rising, partial curve]",
COC(=O)CCC(=O)c1oc2ccccc2c1N,,inactive
C=CCn1c(Cc2cccs2)nnc1SCC(=O)Nc1cc(OC)cc(OC)c1,,inactive
Cc1ccnc(NC(=O)CCc2c(C)nc3ncnn3c2C)c1,"inconclusive: 2 µM [falling, partial curve]",
O=C(CCn1c(=O)oc2ccccc21)N1CCN(c2ccccc2Cl)CC1,,inactive
Cc1nnc(NCc2ccco2)c2ccccc12,,inactive
FC(F)C(F)(F)C(F)(F)C(F)(F)c1cc(-c2ccccc2)n[nH]1,"inconclusive: 5.01 µM [rising, partial curve]",
Cc1cc(C)c2c(n1)sc1c(N3CCOCC3)ncnc12,,inconclusive: -1.01%
O=C(CN1C(=O)CCC1=O)Nc1nc(-c2ccc(Cl)s2)cs1,"inconclusive: 15.8 µM [rising, single point]",
CCOc1ccc(NS(=O)(=O)c2ccc3[nH]cc(C(=O)NCC4CCCO4)c(=O)c3c2)cc1 (stereo unspecified),,inconclusive: 6.27%
Clc1ccc(-n2nnnc2SCc2c(-c3ccccc3)nc3sccn23)cc1,,inactive
c1ccc2sc(N3CCN(Cc4ccc5c(c4)OCO5)CC3)nc2c1,,inactive
N#CCCn1c(=O)c(-c2cc(F)cc(F)c2)nc2cnc(Oc3ccccc3)nc21,,inconclusive: 20.8%
Cc1cccc(Cc2c(C)nc3nc(SCC(=O)NCc4ccco4)nn3c2C)c1,,inactive
Cc1ccc(Cn2c(=S)[nH]c3ccc(N4CCOCC4)cc3c2=O)o1,,inconclusive: -14.9%
COc1cccc(Cn2c(=O)c(-c3cccc(Cl)c3)nc3cncnc32)c1,"inconclusive: 5.01 µM [rising, partial curve]",
Nc1c(S(N)(=O)=O)cc(S(N)(=O)=O)cc1S(N)(=O)=O,,inactive: -6.03% [at 7.6 µM]
CCn1cc(C(=O)O)c(=O)c2cnc(N3CCN(C(=O)Nc4cccc5ccccc45)CC3)nc21,,inconclusive: 21.9%

SMILES,Potency,"activity change, negative = inhibition"
COC(=O)[C@@]1(Cc2ccc(F)cc2)[C@@H]2C(=CC(=O)[C@H]2CC(=O)C(=O)N2CCCC2)CN1C(=O)c1ccccc1,"inconclusive: 10 µM [falling, partial curve]",
C=CCSc1nc2c(c(=O)[nH]c(=O)n2C)n1C/C=C(/C)Cl,"inconclusive: 6.31 µM [rising, partial curve]",
Cc1nnc2n1N=CC=C(C(C)(C)C)S2,,inconclusive: -35.5%
CNC(=O)c1c(NC(=O)c2ccc(S(=O)(=O)N3CCOCC3)cc2)sc2c1CCC2,"inconclusive: 12.6 µM [rising, partial curve]",
CCN(CC)CC(=O)c1c[nH]c2ccc(C)cc12,,inconclusive: -3.24%
O=C(c1cc(S(=O)(=O)N2CCOCC2)ccc1F)N1CCN(Cc2ccccc2)CC1,,inactive
Cc1occc1C(=O)n1nnc2ccccc21,,inconclusive: -9.07%
COCCCn1c(=N)c(C(=O)NCC2CCCO2)cc2c(=O)n3ccccc3nc21 (stereo unspecified),active: 15.8 µM,
O=C(CCc1nc2ccccc2[nH]c1=O)OCC(=O)N1CCc2ccccc21,,inconclusive: 27.9%
COc1ccc(CNc2cc(-c3ccccc3C)ncn2)c(OC)c1,,inconclusive: 22.7%
CC1C2C(C)N(C)C(=O)N(C)C2N(C)C(=O)N1C (stereo unspecified),,inactive
CCn1cc(-c2cc(C(F)(F)F)n3nc(C(=O)O)cc3n2)c(C)n1,,inactive
CCC(=O)N/C=C/n1cnc2cc(C(F)(F)F)ccc21,"inconclusive: 5.01 µM [falling, single point]",
COc1ccc(F)cc1S(=O)(=O)NC1CC(C)(C)NC(C)(C)C1,,inactive
CCCn1nnc2sc3c(c2c1=O)CCC(C)C3 (stereo unspecified),"inconclusive: 12.6 µM [rising, single point]",
CCc1ccccc1,,inactive
CCOC(=O)N1CCN(C(=O)CN(C)S(=O)(=O)c2ccc(OC)c(OC)c2)CC1,"inconclusive: 25.1 µM [rising, single point]",
CCc1nnc(NC(=O)C2CC(=O)N(CCc3ccccc3)C2)s1 (stereo unspecified),,inactive
CC(C)(C)OC(=O)N[C@@H](Cc1ccccc1)c1nnc(S(=O)(=O)Cc2cccc(F)c2)o1,"inconclusive: 6.31 µM [falling, partial curve]",
CCn1nnc(NC(=O)c2ccc(-c3ccc(Cl)cc3)o2)n1,,inactive
